# Test results taken from PubChem BioAssay AID463173 (ICCB-Longwood Screening Facility, Harvard Medical School, 2010).
# Screen size: about 52,000 compounds; about 1,700 (3.3%) were called active. No stated cut-off is given here; in the data, active means survival mostly below about 52% (no sharp cut-off); inactive means mostly above about 56%. This is one part of the list.
# System: Wild type
# Experiment: growth inhibition of S. aureus wild type versus tarO mutant, primary screen, teichoic acid synthesis inhibitors, RN4220, OD600 (AID 463173)
# Conditions: S. aureus RN4220 wild type/DeltatarO growth, OD600, 18 h, active compounds read low, screened at 18.75 µg/mL (by protocol)
row,SMILES,survival
1,CCOCCc1nn2c(=O)cc(COC(=O)c3ccc(NC(=O)c4cccs4)cc3)nc2s1,inactive: 118%
2,Cc1cccc(C(=O)N2CCc3cc(CNC(=O)c4ccco4)ccc32)c1,inactive: 87%
3,CCCNC(=O)c1ccc(Cn2c(SCC(=O)NC(C)C)nc3ccccc3c2=O)cc1,inactive: 75%
4,COc1ccc(C(=O)Nc2nc(-c3ccc(Br)cc3)ns2)cc1,inactive: 80%
5,Cc1csc2nc(COc3ccc(NC(=O)c4ccccc4F)cc3)cc(=O)n12,inactive: 93%
6,O=C(NC1CC(=O)N(c2ccc(F)cc2)C1)c1ccc(S(=O)(=O)N2CCOCC2)cc1 (centres undefined),inactive: 92%
7,COc1ccc(NC(=O)Cn2c(=O)c3cccn3c3ccccc32)cc1,inactive: 89%
8,Cn1c(=O)c2c(-c3ccccc3)n3c(c2n(C)c1=O)C(c1ccc([N+](=O)[O-])cc1)Nc1ccccc1-3 (centres undefined),inactive: 21%
9,COc1ccc(S(=O)(=O)NCCc2sc(-c3cccnc3)nc2C)cc1,inactive: 73%
10,CCOC(=O)c1c(NC(=O)c2ccc(S(=O)(=O)N3CCCC(C)C3)cc2)sc2c1CC(C)(C)NC2(C)C (centres undefined),inactive: 83%
11,CCOCCCN1C(=O)CN(C2CCCCCC2)C(=O)C1c1ccc(OCC)c(OC)c1 (centres undefined),inactive: 124%
12,O=c1[nH]c2ccccc2c(O)c1-c1nc2ccccc2c(=O)[nH]1,inactive: 109%
13,CC(=O)Nc1ccc(OC(=O)N2CCCC2)cc1,inactive: 106%
14,Cc1ccc(C(=O)c2oc3ccccc3c2NC(=O)c2cc(-c3ccccc3)on2)cc1,inactive: 87%
15,Cc1ccc(-n2ncc3c(Nc4ccc5c(c4)OCCO5)ncnc32)cc1Cl,inactive: 128%
16,CCOC(=O)c1[nH]c(C)c(CCC(=O)N2CCN(c3ccc(OC)cc3)CC2)c1C,inactive: 82%
17,COc1cc(OC)cc(C(=O)Nc2ccc3c(c2)CCCN3C(=O)c2cccs2)c1,inactive: 118%
18,CCCCN(C)S(=O)(=O)c1ccc(C(=O)Nc2sc3c(c2C(=O)OCC)CCN(C(C)C)C3)cc1,inactive: 72%
19,CCSc1nc(-c2ccccc2)nc2c1Cc1c(CO)cnc(C)c1O2,inactive: 87%
20,CCOC(=O)C1CCN(C(=O)C2CCN(S(=O)(=O)c3c(C)noc3/C=C/c3ccc(C)cc3)CC2)CC1,inactive: 146%
21,Cc1ccc(C(C)C)c(OCC(=O)Nc2ccc3c(c2)nc(CCNC(=O)c2ccco2)n3C)c1,inactive: 88%
22,CCCC1=Nc2cc(C(=O)NCc3ccccc3)ccc2Sc2ccccc21,inactive: 86%
23,O=C(O)CCC(=O)N1CCc2cc(S(=O)(=O)NCc3ccc(F)cc3)ccc21,inactive: 85%
24,COc1ccc(NC(=O)c2cccc3c(=O)c4c([nH]c23)CCCC4)cc1,inactive: 76%
